According to US20230322846A9, “NEUROACTIVE STEROIDS AND THEIR METHODS OF USE” (SAGE THERAPEUTICS, INC., priority 2018, published 2023):
At least one structure is not confirmed: it was looked up by name or label, or the drawing left a doubt.

Experiments:
[1] = target: [35S]-TBPS binding, rat brain cortical membranes; assay: Steroid inhibition of [35S]-TBPS binding; settings: 3 nM [35S]-TBPS, in the presence of 5 mM GABA
Experimental: [^35S]-t-Butylbicyclophosphorothionate (TBPS) binding assays using rat brain cortical membranes in the presence of 5 mM GABA has been described (Gee et al, J. Pharmacol. Exp. Ther. 1987, 241, 346-353; Hawkinson et al, Mol. Pharmacol. 1994, 46, 977-985; Lewin, A. H et al., Mol. Pharmacol. 1989, 35, 189-194).
Briefly, cortices are rapidly removed following decapitation of carbon dioxide-anesthetized Sprague-Dawley rats (200-250 g). The cortices are homogenized in 10 volumes of ice-cold 0.32 M sucrose using a glass/teflon homogenizer and centrifuged at 1500×g for 10 min at 4° C. The resultant supernatants are centrifuged at 10,000×g for 20 min at 4° C. to obtain the P2 pellets. The P2 pellets are resuspended in 200 mM NaCl/50 mM Na—K phosphate pH 7.4 buffer and centrifuged at 10,000×g for 10 min at 4° C. This washing procedure is repeated twice and the pellets are resuspended in 10 volumes of buffer. Aliquots ([…]) of the membrane suspensions are incubated with 3 nM [^35S]-TBPS and […] aliquots of test drug dissolved in dimethyl sulfoxide (DMSO) (final 0.5%) in the presence of 5 mM GABA. The incubation is brought to a final volume of 1.0 mL with buffer. Nonspecific binding is determined in the presence of […] and ranged from 15 to 25%. Following a 90 min incubation at room temp, the assays are terminated by filtration through glass fiber filters (Schleicher and Schuell No. 32) using a cell harvester (Brandel) and rinsed three times with ice-cold buffer. Filter bound radioactivity is measured by liquid scintillation spectrometry. Non-linear curve fitting of the overall data for each drug averaged for each concentration is done using Prism (GraphPad). […] The concentration of test compound producing 50% inhibition (IC50) of specific binding and the maximal extent of inhibition (Imax) are determined for the individual experiments with the same model used for the overall data and then the means±SEM.s of the individual experiments are calculated.
Various compounds are or can be screened to determine their potential as modulators of [^35S]-TBPS binding in vitro. These assays are or can be performed in accordance with the above

[2] = target: human GABAA receptors composed of the α1β2γ2 subunits (Homo sapiens (Human), UniProt P14867+P18507+P47870); assay: α1β2γ2 SyncroPatch automated patch clamp assay; format: cell-based; settings: peak current after GABA+compound divided by peak current after GABA alone
Chain of human GABAA receptors composed of the α1β2γ2 subunits (P14867 28-456 limits assumed): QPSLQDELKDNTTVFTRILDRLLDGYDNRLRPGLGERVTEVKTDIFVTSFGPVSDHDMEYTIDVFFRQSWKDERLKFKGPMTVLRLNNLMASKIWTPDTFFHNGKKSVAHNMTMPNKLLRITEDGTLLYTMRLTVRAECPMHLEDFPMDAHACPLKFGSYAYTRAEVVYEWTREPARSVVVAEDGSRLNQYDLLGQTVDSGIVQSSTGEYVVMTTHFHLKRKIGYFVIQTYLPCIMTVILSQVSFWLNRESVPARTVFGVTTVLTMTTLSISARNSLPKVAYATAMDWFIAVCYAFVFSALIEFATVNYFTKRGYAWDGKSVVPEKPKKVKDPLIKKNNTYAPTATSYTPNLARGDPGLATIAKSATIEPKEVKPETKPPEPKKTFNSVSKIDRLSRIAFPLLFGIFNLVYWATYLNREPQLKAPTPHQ
Chain of human GABAA receptors composed of the α1β2γ2 subunits (P47870 25-512 limits assumed): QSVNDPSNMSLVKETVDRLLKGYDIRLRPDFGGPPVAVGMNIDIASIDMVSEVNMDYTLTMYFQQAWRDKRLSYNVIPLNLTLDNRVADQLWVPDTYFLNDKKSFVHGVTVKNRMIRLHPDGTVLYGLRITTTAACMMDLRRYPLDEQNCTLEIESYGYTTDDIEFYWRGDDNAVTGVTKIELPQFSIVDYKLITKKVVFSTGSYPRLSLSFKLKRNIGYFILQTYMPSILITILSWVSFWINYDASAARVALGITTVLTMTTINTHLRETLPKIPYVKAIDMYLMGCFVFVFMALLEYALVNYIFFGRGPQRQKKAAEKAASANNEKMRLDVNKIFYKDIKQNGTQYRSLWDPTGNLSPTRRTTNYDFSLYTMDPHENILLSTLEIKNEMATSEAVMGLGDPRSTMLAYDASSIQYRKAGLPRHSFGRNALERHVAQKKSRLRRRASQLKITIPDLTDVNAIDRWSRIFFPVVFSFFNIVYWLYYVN
Chain of human GABAA receptors composed of the α1β2γ2 subunits (P18507 40-475 limits assumed): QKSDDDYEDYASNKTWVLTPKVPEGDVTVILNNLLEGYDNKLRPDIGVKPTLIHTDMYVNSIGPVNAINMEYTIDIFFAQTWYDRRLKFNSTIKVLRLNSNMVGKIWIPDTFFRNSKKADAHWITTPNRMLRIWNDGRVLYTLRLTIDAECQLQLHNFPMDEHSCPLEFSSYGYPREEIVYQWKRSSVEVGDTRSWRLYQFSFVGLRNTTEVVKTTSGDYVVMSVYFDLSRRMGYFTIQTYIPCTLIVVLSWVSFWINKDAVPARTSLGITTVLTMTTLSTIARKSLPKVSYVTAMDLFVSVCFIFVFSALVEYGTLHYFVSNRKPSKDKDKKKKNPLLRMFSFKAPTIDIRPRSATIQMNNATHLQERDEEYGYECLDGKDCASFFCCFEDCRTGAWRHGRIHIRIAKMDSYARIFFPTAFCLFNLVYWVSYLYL
Experimental: (§1) The SyncroPatch 384PE (Nanion, Germany) automated patch clamp platform was used to obtain recordings from human embryonic kidney cells stably expressing human GABAA receptors composed of the α1β2γ2 and α4β3δ subunits. Cells were bathed in an extracellular solution containing: 140 mM NaCl, 4 mM KCl, 2 mM CaCl2), 1 mM MgCl2, 10 mM HEPES, 5 mM glucose and 0.1% DMSO. Solution was maintained at pH 7.4 with NaOH and 300 mOsm/L. Chips with multi-hole (4×) medium resistance (2-3M) are used for the recombinant cell line experiments. Once harvested, cells are stored in extracellular solution set to 10° C. in the cell hotel with a minimum shaking speed of 200 rpm before addition to the chip at the beginning of each experiment. Whole cell patch clamp recordings were made using an intracellular solution containing: 90 mM KCl, 50 mM KF, 1.5 mM MgCl2, 11.1 mM EGTA and 10 mM HEPES, 2 mM NaATP, maintained at pH 7.2 with KOH. Currents are leak corrected (using P/2 leak correction protocol) and sampled at 5 kHz. Cells were clamped at −120 mV. […] Compound effect was determined by dividing peak current amplitude after GABA+compound by peak current amplitude after GABA alone. EC50 and Emax values were determined from average values for each concentration.

[3] = target: human GABAA receptors composed of the α4β3δ subunits (Homo sapiens (Human), UniProt O14764+P28472+P48169); assay: α4β3δ SyncroPatch automated patch clamp assay; format: cell-based; settings: peak current after GABA+compound divided by peak current after GABA alone
Chain of human GABAA receptors composed of the α4β3δ subunits (P48169 36-554 limits assumed): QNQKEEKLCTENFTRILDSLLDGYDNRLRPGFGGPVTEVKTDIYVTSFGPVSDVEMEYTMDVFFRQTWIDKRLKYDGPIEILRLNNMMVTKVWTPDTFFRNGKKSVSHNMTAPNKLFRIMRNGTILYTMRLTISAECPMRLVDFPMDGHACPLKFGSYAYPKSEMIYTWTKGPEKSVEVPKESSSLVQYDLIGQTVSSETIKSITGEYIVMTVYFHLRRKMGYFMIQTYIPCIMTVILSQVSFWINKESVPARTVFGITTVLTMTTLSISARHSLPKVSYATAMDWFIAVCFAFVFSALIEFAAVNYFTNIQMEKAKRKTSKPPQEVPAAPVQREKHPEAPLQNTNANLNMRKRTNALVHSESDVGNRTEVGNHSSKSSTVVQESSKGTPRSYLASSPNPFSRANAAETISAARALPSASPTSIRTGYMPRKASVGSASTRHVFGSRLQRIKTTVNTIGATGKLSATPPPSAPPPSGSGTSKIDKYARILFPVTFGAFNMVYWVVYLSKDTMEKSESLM
Chain of human GABAA receptors composed of the α4β3δ subunits (P28472 26-473 limits assumed): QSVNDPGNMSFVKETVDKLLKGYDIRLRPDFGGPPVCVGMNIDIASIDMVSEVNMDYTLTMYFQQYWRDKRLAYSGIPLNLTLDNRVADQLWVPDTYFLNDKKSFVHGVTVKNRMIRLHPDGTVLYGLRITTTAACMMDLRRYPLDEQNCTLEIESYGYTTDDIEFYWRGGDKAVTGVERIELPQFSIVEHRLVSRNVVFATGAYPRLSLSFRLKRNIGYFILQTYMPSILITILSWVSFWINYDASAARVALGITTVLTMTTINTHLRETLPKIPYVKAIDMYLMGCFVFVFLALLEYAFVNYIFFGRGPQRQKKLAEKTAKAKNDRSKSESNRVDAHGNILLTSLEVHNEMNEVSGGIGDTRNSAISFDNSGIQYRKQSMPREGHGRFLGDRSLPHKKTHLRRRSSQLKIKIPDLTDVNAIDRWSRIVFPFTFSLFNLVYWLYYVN
Chain of human GABAA receptors composed of the α4β3δ subunits (O14764 17-452 limits assumed): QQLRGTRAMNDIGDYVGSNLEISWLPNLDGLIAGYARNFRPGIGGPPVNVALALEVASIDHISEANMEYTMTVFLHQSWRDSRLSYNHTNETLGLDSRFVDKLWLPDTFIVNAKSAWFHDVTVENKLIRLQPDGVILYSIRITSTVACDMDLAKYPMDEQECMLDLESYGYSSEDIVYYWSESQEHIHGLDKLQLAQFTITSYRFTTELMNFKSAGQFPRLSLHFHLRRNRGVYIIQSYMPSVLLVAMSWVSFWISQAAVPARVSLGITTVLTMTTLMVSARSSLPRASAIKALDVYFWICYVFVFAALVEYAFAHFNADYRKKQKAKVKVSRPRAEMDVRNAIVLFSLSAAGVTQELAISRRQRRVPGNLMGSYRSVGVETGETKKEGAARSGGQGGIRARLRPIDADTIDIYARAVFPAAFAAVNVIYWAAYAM
Experimental: as §1

SMILES | IC50 [1] | α1β2γ2 EMAX [2] | α4β3δ EMAX [3]
COC[C@@]1(O)CC[C@H]2[C@H](CC[C@@H]3[C@@H]2CC[C@]2(C)[C@@H]([C@@H](C)Cc4ccc(C(F)(F)F)nc4)CC[C@@H]32)C1 [Example 420] | < 0.1 µM | B (B indicates an Emax response 8 to <10) | B (B indicates an Emax response 30 to <45)
COC[C@@]1(O)CC[C@H]2[C@H](CC[C@@H]3[C@@H]2CC[C@]2(C)[C@@H]([C@@H](C)NC(=O)c4ccc(C#N)nc4)CC[C@@H]32)C1 [Example 122] | 0.1 to 1 µM | – | –
C[C@H](Cc1cncc(C#N)c1)[C@H]1CC[C@H]2[C@@H]3CC[C@@H]4C[C@](C)(O)CC[C@]4(C)[C@H]3CC[C@]12C [Example 446] | < 0.1 µM | – | –
CCOC[C@@]1(O)CC[C@H]2[C@H](CC[C@@H]3[C@@H]2CC[C@]2(C)[C@@H]([C@@H](C)N(C)S(=O)(=O)c4ccc(C#N)cn4)CC[C@@H]32)C1 [Example 74] | < 0.1 µM | – | –
COC[C@@]1(O)CC[C@H]2[C@H](CC[C@@H]3[C@@H]2CC[C@]2(C)[C@@H]([C@H](C)NC(=O)c4ccc(C#N)nc4)CC[C@@H]32)C1 [Example 123] | ≥ 10 µM | – | –
CCOC[C@@]1(O)CC[C@H]2[C@H](CC[C@@H]3[C@@H]2CC[C@]2(C)[C@@H]([C@H](C)Cc4ccccc4C#N)CC[C@@H]32)C1 [Example 416] | 0.1 to 1 µM | – | –
CCC[C@@]1(O)CC[C@H]2[C@H](CC[C@@H]3[C@@H]2CC[C@]2(C)[C@@H]([C@@H](C)Cn4nnc(C)n4)[C@@H](O)C[C@@H]32)C1 [Example 365, (3R,5R,8R,9R,10S,13S,14S,16S,17R)-13-methyl-17-((R)-1-(5-methyl-2H-tetrazol-2-yl)propan-2-yl)-3-propylhexadecahydro-1H-cyclopenta[a]phenanthrene-3,16-diol] | < 0.1 µM | B (B indicates an Emax response 8 to <10) | B (B indicates an Emax response 30 to <45)
CCOC[C@@]1(O)CC[C@H]2[C@H](CC[C@@H]3[C@@H]2CC[C@]2(C)[C@@H]([C@@H](C)Cc4ccccc4C#N)CC[C@@H]32)C1 [Example 417] | < 0.1 µM | – | –
C[C@@]1(O)CC[C@H]2[C@H](CC[C@@H]3[C@@H]2CC[C@]2(C)[C@@H](CNS(=O)(=O)c4ccccc4)CC[C@@H]32)C1 [Example 4, N-(((3R,5R,8R,9R,10S,13S,14S,17S)-3-hydroxy-3,13-dimethylhexadecahydro-1H-cyclopenta[a]phenanthren-17-yl)methyl)benzenesulfonamide] | 0.1 to 1 µM | – | –
C[C@H](Cc1nc(C(F)(F)F)cs1)[C@H]1CC[C@H]2[C@@H]3CC[C@@H]4C[C@](C)(O)CC[C@]4(C)[C@H]3CC[C@]12C [Example 454] | 0.1 to 1 µM | – | –
C[C@@H](Cc1cncc(C#N)c1)[C@H]1CC[C@H]2[C@@H]3CC[C@@H]4C[C@](C)(O)CC[C@]4(C)[C@H]3CC[C@]12C [Example 445] | < 0.1 µM | – | –
C[C@@H](NC(=O)c1ccc(C#N)cn1)[C@H]1CC[C@H]2[C@@H]3CC[C@@H]4C[C@](C)(O)CC[C@@H]4[C@H]3CC[C@]12C [Example 120] | < 0.1 µM | – | –
CCC[C@@]1(O)CC[C@H]2[C@H](CC[C@@H]3[C@@H]2CC[C@]2(C)[C@@H]([C@@H](C)Cn4nnc(C)n4)[C@H](O)C[C@@H]32)C1 [Example 363, (3R,5R,8R,9R,10S,13S,14S,16R,17R)-13-methyl-17-((R)-1-(5-methyl-2H-tetrazol-2-yl)propan-2-yl)-3-propylhexadecahydro-1H-cyclopenta[a]phenanthrene-3,16-diol] | 1 to 10 µM | – | –
